PMC4336329 (PLoS ONE, 2015)
Screen size: about 310,000 compounds; about 2,200 (0.71%) showed an effect of 50% or more. The effect is printed as a negative number. The list shows a part of the results.

These compounds were tested against human ether-à-go-go-related gene (hERG) potassium channel (human, UniProt Q12809) (assay: primary screen, population patch clamp on CHO cells stably expressing hERG).
Sequence of human ether-à-go-go-related gene (hERG) potassium channel (Q12809 whole entry, looked up): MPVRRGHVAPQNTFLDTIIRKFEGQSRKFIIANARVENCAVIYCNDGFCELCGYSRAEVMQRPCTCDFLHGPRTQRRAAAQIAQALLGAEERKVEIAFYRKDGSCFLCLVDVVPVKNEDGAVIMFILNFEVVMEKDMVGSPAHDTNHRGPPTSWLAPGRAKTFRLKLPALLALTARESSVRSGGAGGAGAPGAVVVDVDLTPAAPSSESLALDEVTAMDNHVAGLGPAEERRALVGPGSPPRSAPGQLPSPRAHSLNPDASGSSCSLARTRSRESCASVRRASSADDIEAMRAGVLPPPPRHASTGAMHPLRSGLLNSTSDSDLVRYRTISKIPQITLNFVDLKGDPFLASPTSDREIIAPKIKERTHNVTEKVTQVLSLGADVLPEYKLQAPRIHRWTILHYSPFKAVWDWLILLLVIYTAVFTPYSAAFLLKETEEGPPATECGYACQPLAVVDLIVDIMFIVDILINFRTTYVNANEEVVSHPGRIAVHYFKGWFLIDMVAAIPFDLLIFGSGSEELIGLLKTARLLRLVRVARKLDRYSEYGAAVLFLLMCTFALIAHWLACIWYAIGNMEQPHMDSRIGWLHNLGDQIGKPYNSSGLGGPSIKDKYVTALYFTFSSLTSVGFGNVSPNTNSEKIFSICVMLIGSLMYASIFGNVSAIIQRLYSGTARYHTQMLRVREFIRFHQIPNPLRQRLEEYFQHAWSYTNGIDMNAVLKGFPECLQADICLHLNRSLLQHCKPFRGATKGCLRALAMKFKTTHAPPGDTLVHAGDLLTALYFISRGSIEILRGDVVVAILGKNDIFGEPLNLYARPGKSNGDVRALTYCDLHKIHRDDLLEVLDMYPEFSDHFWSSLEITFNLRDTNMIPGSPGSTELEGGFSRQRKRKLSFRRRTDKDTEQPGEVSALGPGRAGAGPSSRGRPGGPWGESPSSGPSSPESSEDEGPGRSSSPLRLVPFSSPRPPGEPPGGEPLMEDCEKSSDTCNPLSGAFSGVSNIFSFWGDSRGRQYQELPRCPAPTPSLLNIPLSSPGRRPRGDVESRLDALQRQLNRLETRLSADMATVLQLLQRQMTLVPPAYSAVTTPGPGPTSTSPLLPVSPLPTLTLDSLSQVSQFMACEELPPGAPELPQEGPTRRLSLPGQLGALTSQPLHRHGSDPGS

Row | SMILES | hERG current change (%, negative = inhibition) at 1uM
1 | CCCn1nnnc1SCC(=O)N1CCCC1 | 5.4%
2 | CCCCn1c(Cc2ccccc2)nnc1SCC(=O)N1CCOCC1 | -1.72%
3 | O=C(Nc1ccc(S(=O)(=O)N2CCOCC2)cc1)c1cc([N+](=O)[O-])ccc1Cl | 11.4%
4 | NS(=O)(=O)c1ccc(N=Cc2c(O)n(C3CCCCC3)c(=O)n(C3CCCCC3)c2=O)cc1 | 11.8%
5 | Cc1ccc(OCC(=O)c2cc(C)n(-c3ccccc3)c2C)c([N+](=O)[O-])n1 | 1.59%
6 | COc1ccc(-c2cc(C(=O)Nc3cc(S(N)(=O)=O)ccc3C)c3ccccc3n2)cc1OC | 10.9%
7 | NS(=O)(=O)c1ccc(-c2ccc(/C=N/Nc3ccc(C(=O)O)cc3)o2)cc1 | 3%
8 | COc1ccc([N+](=O)[O-])cc1NC(=S)NC(NC(=O)Cc1ccc(OC)c(OC)c1)C(Cl)(Cl)Cl (stereo not drawn) | 7.54%
9 | COc1ccc(NC(=O)CN(C)C(=O)Cc2c[nH]c3ccccc23)cc1 | 3.36%
10 | COC(C(=O)N1CCC(CCC(=O)Nc2ccccc2)CC1)c1ccccc1 (stereo not drawn) | 1.82%
11 | Cc1cccc(NC(=O)c2cccnc2)c1C | 13.1%
12 | CCOC(=O)Cc1csc(NC(=O)CCC(=O)O)n1 | 15.1%
13 | Cn1c(C(=O)O)c(CC(=O)Nc2ccccc2F)c2ccccc21 | 4.81%
14 | O=C(c1cc(Cl)nc2ccccc12)N(Cc1nnc(-c2ccccc2Cl)o1)C1CC1 | 2.4%
15 | Cc1cccc(C(=O)NNC(=O)C2CC2)c1 | 3.65%
16 | COc1cc2cc(C[C@H](C)O)oc(=O)c2cc1OC | 17.8%
17 | O=S(=O)(NCc1cccnc1)c1ccc2ccccc2c1 | 12.2%
18 | C/C(=N\Nc1ccc([N+](=O)[O-])cc1)c1ccc(N2CCOCC2)cc1 | 10.1%
19 | COc1cccc(-c2n[nH]c3c2CCC3)c1 | 5.46%

Row | SMILES | hERG current change (%, negative = inhibition) at 1uM
20 | CC(C)(C)n1nnnc1C(c1ccncc1)N1CCCCCC1 (stereo not drawn) | 9.52%
21 | CCCn1c(N)c(C(=O)CSc2nnc(C3CC3)n2Cc2ccccc2)c(=O)n(C)c1=O | 2.06%
22 | COc1ccc(C(=O)O)cc1S(=O)(=O)Nc1ccccc1-c1ccccc1 | 10.7%
23 | NC(=O)c1nsc(C(=O)N(c2cccc(F)c2)C(C(=O)NCC2CCCO2)c2cccs2)c1N (stereo not drawn) | 12.1%
24 | CN(/N=C/c1ccccc1O)C(=S)c1ccccc1 | 8.65%
25 | O=C(Nc1cccc2ncccc12)c1ccc(-c2ccc(Cl)cc2Cl)o1 | -0.858%
26 | O=C(CSc1nnc(COc2ccccc2)o1)NCCc1ccccc1 | 7.98%
27 | O=C(O)C(=O)/C(=C\c1cccc(Cl)c1)c1ccc2ccccc2n1 | -4.78%
28 | CC1Cc2ccccc2N1Cc1cc(=O)n2ccsc2n1 (stereo not drawn) | 10.2%
29 | O=Cc1cc2ccccc2nc1SCc1ccc(Cl)cc1 | 4.51%
30 | O=C(C1CC(=O)N(c2ccc3c(c2)OCCO3)C1)N1CCN(c2ccccc2O)CC1 (stereo not drawn) | 2.38%
31 | COc1ccc(OC)c(NC(=O)C(Sc2ccccc2)c2ccccc2)c1 (stereo not drawn) | 6.46%
32 | Cc1nc2ccccc2c2nc(NC(=O)C(F)(F)F)nn12 | 1.73%
33 | CCOC(=O)Nc1ccc(S(=O)(=O)N(C)C(C)C)cc1 | 4.98%
34 | Cc1ccc(S(=O)(=O)N2CCC(C(=O)NCCN3CCCCCC3)CC2)cc1 | -4.77%
35 | CC(=O)Oc1cccc(N2C(=O)C3C4C=CC(C4=C(C)C)C3C2=O)c1 (stereo not drawn) | 15.5%
36 | COc1ccc([N+](=O)[O-])cc1NC(=O)Cc1c(Cl)cccc1Cl | 13.2%
37 | Cc1ccc(C(=O)CCc2ccc(N)cc2)cc1 | 11.8%
38 | CC(NC(=O)NC(=O)c1ccc(Cl)cc1Cl)C1CC1 (stereo not drawn) | 5.49%

Row | SMILES | hERG current change (%, negative = inhibition) at 1uM
39 | COc1ccccc1C/C(N)=N/OC(=O)COc1cccc(C)c1C | 6.44%
40 | Cc1ccc2[nH]nc(C(=O)N3CCCC(C(=O)c4ccc(Cl)cc4)C3)c2c1 (stereo not drawn) | 19.6%
41 | O=S(=O)(c1ccccc1)c1ccccc1/C=N\O | 0.466%
42 | CC1SC(c2ccc(Cl)cc2Cl)NC1=O (stereo not drawn) | 12.2%
43 | COC(=O)c1sc(C(=O)OC)c(C(=O)OC)c1C(=O)OC | 2.77%
44 | Cc1ccc(C(=O)CSc2nnnn2C(C)C)c(C)c1 | 12.7%
45 | CC12CCC(C(=O)NCc3cccnc3)(OC1=O)C2(C)C (stereo not drawn) | 11.9%
46 | CCOc1ccc(N(CC(=O)NC2CCCCC2)S(=O)(=O)c2ccccc2)cc1 | 15.3%
47 | Nc1nc(C23CC4CCC(CC(C4)C2)C3)cs1 | 5.49%
48 | CC(NC(=S)Nc1ccc(Cl)cc1)C(c1ccccc1)N1CCOCC1 (stereo not drawn) | 6.38%
49 | COc1ccc(NC(=O)C2CCN(S(=O)(=O)c3ccc4c(c3)NC(=O)C(C)S4)CC2)cc1 (stereo not drawn) | 12.4%
50 | CCC(O)C1CCN(C(=O)c2cc(COc3ccc4ncccc4c3)on2)CC1 (stereo not drawn) | 17.1%
51 | N#C/C(=C\c1coc2ccc(O)cc2c1=O)C(=O)Nc1nc2ccccc2s1 | 12%
52 | COc1ccc(CCNc2oc(-c3ccco3)nc2C#N)cc1 | 13.4%
53 | COc1ccc(N(CC(=O)N2CCc3ccccc3C2)S(=O)(=O)c2c(C)[nH]c(=O)[nH]c2=O)cc1 | 11.9%
54 | Cc1cc(C)c(NC(=O)C2CCCN2CCOC(=O)c2cccc([N+](=O)[O-])c2)c(C)c1.Cl (stereo not drawn) | 2.29%
55 | Cc1ccccc1OCCn1c(S(=O)(=O)O)nc2c(N)ncnc21 | 12.8%
56 | CCOc1ccc(NS(=O)(=O)c2coc(C(N)=O)c2)cc1 | 8.93%
57 | COC(=O)NCC(C)OC(=O)Nc1ccc(Cl)cc1 (stereo not drawn) | 12.7%
